Experimental data taken from PubChem BioAssay AID1768 (National Center for Advancing Translational Sciences (NCATS), 2009).
Hit rate of the full screen: of about 270,000 compounds, about 620 (0.23%) were called active. Inconclusive results, whose numbers are uncertain, are shown with a selection of clear calls. The call rests on the fitted dose curve; in most records, active means well fitted inhibition curve with a large enough effect in the polarisation, with a control signal flat (not every such curve was filed as active); inconclusive means small, poorly fitted or top-dose-only effect, or effect the other way, or a change in a side signal; inactive means no such curve, though single readings can be large or run the other way; the % refers to the polarisation. A potency beside an inconclusive call is a rough fit, not a confirmed value. A note “side channel” means that the fit belongs to a control or component signal, not to the main read-out.

target: Menin (Homo sapiens) (UniProt O00255); assay: qHTS Assay for Inhibitors Targeting the Menin-MLL Interaction in MLL Related Leukemias: Competition With Texas Red Labeled MLL-derived Mutant Peptide; settings: fluorescence polarization; FP activity change, negative = inhibition: at 61.6 µM (top of the series); on FP activity change, negative = inhibition: % of control where 0% means no effect
UniProt O00255, sequence (O00255 whole entry, looked up): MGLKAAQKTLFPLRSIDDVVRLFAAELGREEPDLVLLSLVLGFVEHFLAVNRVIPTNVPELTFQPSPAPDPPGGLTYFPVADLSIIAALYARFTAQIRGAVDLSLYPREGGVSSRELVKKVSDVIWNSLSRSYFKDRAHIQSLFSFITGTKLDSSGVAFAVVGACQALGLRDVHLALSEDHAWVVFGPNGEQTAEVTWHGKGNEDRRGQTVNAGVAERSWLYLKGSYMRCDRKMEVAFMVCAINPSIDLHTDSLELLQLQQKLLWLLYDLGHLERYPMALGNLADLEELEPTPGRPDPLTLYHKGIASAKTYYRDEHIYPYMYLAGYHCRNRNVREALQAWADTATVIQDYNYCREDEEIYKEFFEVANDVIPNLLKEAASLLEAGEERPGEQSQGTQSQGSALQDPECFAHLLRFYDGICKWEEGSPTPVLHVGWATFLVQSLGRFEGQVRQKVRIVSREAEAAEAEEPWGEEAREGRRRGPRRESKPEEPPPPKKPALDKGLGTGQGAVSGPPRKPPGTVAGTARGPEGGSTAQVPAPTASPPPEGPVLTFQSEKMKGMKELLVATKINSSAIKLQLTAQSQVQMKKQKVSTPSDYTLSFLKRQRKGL
Potency means the concentration at half of the fitted maximal effect; tags describe the fitted curve by direction and shape or compound fluorescence and quenching.

Potency, inconclusive:
CCN(CC)C(=O)C1c2ccccc2Oc2ccccc21 28.2 µM [fluorescent, side channel, single point]
Cc1ccc(-c2nc(Nc3ccccc3)n[nH]2)cc1 14.1 µM [quencher, side channel, partial curve]
CCOc1ccc(NC(=O)CCn2c(=S)oc3ccccc32)cc1 3.16 µM [inhibitor, partial curve]
Cc1ccc2c(c1)N(CCC(=O)NCCCN1CCCC1)C(=O)C(C)O2 (stereo not drawn) 39.8 µM [inhibitor, single point]
CCOC(=O)c1sc(Nc2nc3c(OC)cccc3s2)cc1C 4.47 µM [quencher, side channel, full curve]
C#Cc1ccc([C@@H]2C=C(C(=O)N3CCN(Cc4ccc5c(c4)OCO5)CC3)O[C@H](OCCCCO)C2)cc1 2.24 µM [fluorescent, side channel, full curve]
Oc1ccc(-c2csc(-c3ccccc3)n2)cc1O 15.8 µM [quencher, side channel, partial curve]
COc1cc(-c2nc3ccccn3c2/N=C/c2cc(OC)c(O)cc2Cl)ccc1O 15.8 µM [quencher, side channel, partial curve]
Cc1cc(Cl)c(OCCCNC2CCCC2)c(Br)c1 3.55 µM [inhibitor, full curve, poor fit]
CN(C)CCCn1c(=O)n(Cc2ccccc2)c(=O)c2c3c(sc21)CCCCC3 7.94 µM [fluorescent, side channel, partial curve]
CC(=O)Nc1ccc(S(=O)(=O)N2CCSC2c2ccc(Cl)cc2)cc1 (stereo not drawn) 25.1 µM [quencher, side channel, partial curve]
Cc1ccc(OCCn2c3ccccc3n3nc(C)c(=O)nc23)cc1 4.47 µM [fluorescent, side channel, partial curve]
Cc1cc([N+](=O)[O-])nn1CC(=O)NNC(=S)Nc1ccc([N+](=O)[O-])cc1 28.2 µM [quencher, side channel, single point]
CCO[C@@H]1OC(C(=O)N2CCN(Cc3ccccc3)CC2)=C[C@H](c2ccc(Br)cc2)[C@H]1CCCO 11.2 µM [inhibitor, partial curve]
COc1ccc(-n2cnc3sc(-c4ccccc4)cc3c2=O)cc1 35.5 µM [inhibitor, single point]
CN(C)c1ccc(NC(=O)c2sc(SCC(=O)Nc3ccc(Br)cc3)nc2N)cc1 14.1 µM [quencher, side channel, partial curve]
CS(=O)(=O)N1N=C(c2ccccc2)CC1c1ccc2c(c1)OCO2 (stereo not drawn) 35.5 µM [fluorescent, side channel, single point]
CCCCCCCCCCCCCCCC(=O)NCC(COP(=O)([O-])OCC[N+](C)(C)C)OCC (stereo not drawn) 25.1 µM [fluorescent, side channel, single point]
COc1cc([N+](=O)[O-])cc(/C=C2/SC(=S)N(Cc3ccccc3)C2=O)c1O 3.55 µM [fluorescent, side channel, full curve]
CCc1cc(C(=O)N2CCCC(CNC(=O)c3ccc(-c4ccccc4)cc3)C2)no1 (stereo not drawn) 28.2 µM [inhibitor, single point]
CC(C)(C)NC(=O)CSc1nnc(NC(=O)CCc2ccccc2)s1 6.31 µM [inhibitor, full curve]
COc1ccccc1NS(=O)(=O)c1cc(NC(=O)c2ccc3ccccc3n2)ccc1Cl 22.4 µM [inhibitor, single point]
CC(C)c1csc(CN2CCC(CO)(Cc3cccc(F)c3)CC2)n1 20 µM [inhibitor, single point]
COc1ccc(NC(=O)c2sc(SCc3ccccc3)nc2N)cc1 39.8 µM [inhibitor, single point]
COc1ccc(NC(=O)c2cc3c(CO)cnc(C)c3oc2=Nc2cc(OC)cc(OC)c2)cc1 2 µM [inhibitor, partial curve]
COc1ccccc1NC(=O)c1nnn(Cc2ccccc2)c1NC(=O)C(F)(F)F 22.4 µM [quencher, side channel, single point]
COc1cccc(-n2nnc3c(=O)n(CC(=O)NC4CCCC4)cnc32)c1 25.1 µM [inhibitor, single point]
OC(CN1CCC(Cc2ccccc2)CC1)C(F)(F)F (stereo not drawn) 11.2 µM [inhibitor, partial curve]
COc1cccc2oc3ccc(C#CC4(N)CCCCC4)cc3c(=O)c12 7.94 µM [fluorescent, side channel, partial curve]
COc1ccc2cc(S(=O)(=O)N3CCCC3)ccc2c1 5.62 µM [inhibitor, full curve, poor fit]
Cc1ccc(N(CC(=O)NCCc2ccc(F)cc2)S(=O)(=O)c2ccc(Cl)c([N+](=O)[O-])c2)c(C)c1 3.55 µM [quencher, side channel, full curve, poor fit]

Potency, inactive:
CC(=O)Nc1ccn(C2CC3OCC(NC(=O)C(Cc4ccccc4)NC(=O)OC(C)(C)C)C3O2)c(=O)n1 (stereo not drawn)
O=c1c2ccccc2nc(SCc2nnc(-c3ccccc3Br)o2)n1-c1ccccc1
N#Cc1cc2cc3c(cc2nc1N1CCOCC1)OCO3
COc1ccc(N(C(=O)c2cnccn2)C(C(=O)NC2CCCCC2)c2ccccc2)cc1 (stereo not drawn)
O=C(CNC(=O)c1cccs1)c1ccc(Cl)cc1

FP activity change, negative = inhibition, inactive:
C=CC[C@@H]1C=C[C@H](O/N=C2\c3cc(OC)ccc3O[C@H](c3cccc(OC)c3)[C@H]2O)[C@H](CO)O1 -5.64% [at 11.7 µM]
CCN(CC)c1ccc2cc(-c3nc4ccccc4n3C)c(=O)oc2c1 -8.33% [at 11.7 µM]
